Measurements: EP0552417B1, “Cyclic peptides and use thereof” (priority 1991, dated 1993)
At least one peptide structure holds a part that was inferred or is arguable (an end, a ring closure or a residue). Starred links: 1 amine or outer side, 2 acyl side, 3 side chain; linkers in the order of their positions; H or OH if unused. Non-standard residues stand in square brackets, D forms with d. Residues, ends and D or L forms follow the SMILES beside them. *: point of attachment. dGly(2-thienyl) = N[C@@H](C(=O)O)c1cccs1; X1 = O=C([C@H](N[*:1])c1ccsc1)[*:2]; d(aIle) = CC[C@H](C)[C@@H](N)C(=O)O; Hyp = O=C(O)[C@@H]1C[C@@H](O)CN1; dPhg = N[C@@H](C(=O)O)c1ccccc1; dTle = CC(C)(C)[C@@H](N)C(=O)O; NHPhenethyl = c1ccc(CCN*)cc1; NHBn = c1ccc(CN*)cc1; Bn = c1ccc(C*)cc1; For = O=C*

Key:
[1] = biological target: T1, endothelin receptor A (ETA) (Sus scrofa, UniProt Q29010); test: Assay of affinity for receptor (1): binding activity on ETA receptor, 125I-labeled endothelin-1, porcine heart membrane fraction; design: key: relative specific activity; reference cyclic pentapeptide ETA binding = 1.0; settings: specific activity, taking the binding activity of control cyclo[-D-Glu-Ala-D-aIle-Leu-D-Trp-] on receptor A as 1.0, 25°C, 1 hour
T1 construct: A membrane fraction prepared from the porcine heart; from tissue; host or cells: porcine heart membrane fraction
T1 sequence (Q29010 21-427): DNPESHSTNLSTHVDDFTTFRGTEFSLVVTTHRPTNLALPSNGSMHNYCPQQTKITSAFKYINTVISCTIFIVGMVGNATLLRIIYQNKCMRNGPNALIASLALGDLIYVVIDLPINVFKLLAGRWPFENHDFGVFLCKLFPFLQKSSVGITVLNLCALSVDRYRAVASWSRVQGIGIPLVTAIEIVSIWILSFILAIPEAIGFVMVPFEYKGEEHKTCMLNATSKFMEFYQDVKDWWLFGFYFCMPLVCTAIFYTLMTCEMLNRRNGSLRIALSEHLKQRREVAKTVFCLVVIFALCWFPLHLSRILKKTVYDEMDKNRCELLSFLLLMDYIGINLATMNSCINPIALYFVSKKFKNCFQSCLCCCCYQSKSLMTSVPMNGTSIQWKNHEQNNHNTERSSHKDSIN
Procedure: Assay of Affinity for Receptor (1) ... Binding Activity on ETA Receptor
A membrane fraction prepared from the porcine heart was diluted to 0.15 mg/ml by using a buffer solution for assay, and 100 µl of the resulting suspension of the membrane fraction was poured into each assay tube to use for assay. To this suspension of the membrane fraction was added 2 µl of 5 nM ^125I-labeled endothelin-1 solution. Further, 3 µl of a test peptide solution was added thereto, followed by incubation at a temperature of 25°C for 1 hour. Then, the resulting suspension was diluted with 900 µl of the buffer solution for assay cooled with ice, and thereafter separated into a supernatant and a precipitate by centrifugation at 12,000 X g for 10 minutes. Cell membranes and an endothelin receptor A (ETA) embedded therein were contained in the precipitate, and radioactive iodine-labeled endothelin combined with the receptor was also recovered in the precipitate. Accordingly, the amount of radioactive iodine-labeled endothelin combined with the endothelin receptor A (ETA) was determined by measuring the amount of radioactive iodine contained in the precipitate with a gamma-ray counter. The cyclic pentapeptide described in Japanese Patent Application No. 2-413328/1990, cyclo[-D-Glu-Ala-D-aIle-Leu-D-Trp-], was used as a control compound. The numerical value of ETA shown in Table 1 is the value of specific activity, taking the binding activity of this cyclic pentapeptide on the receptor A as 1.0. The binding activity (IC50) of this cyclic pentapeptide on the ETA receptor is 2x10^-6 M.

[2] = system: ETB; test: ETB radio receptor assay *2, 125I-endothelin-1, guinea pig kidney crude membrane fraction; assay type: binding, Guinea pigs; settings: relative activity, 37 °C, 90 minutes
Procedure: ETB Radio Receptor Assay *2
In the endothelin radio receptor assay, guinea pigs' kidneys were used. Guinea pigs (Std Hartrey, male 250 g, Japan SLC Ltd.) were made to have a cerebral concussion and sacrificed by bleeding from carotid arteries to pick up the kidneys and removed fat therefrom to prepare the kidneys. The obtained kidneys were sliced and homogenized by politron homogenizer in 20 ml of 50 mM Tris-HCl buffer [pH 7.4; 20 mM NaHCO3, 0.1 mM PMSF (Phenylmethylsulfonyl Fluoride), 1 mM EDTA (Ethylenediaminetetraacetic acid)] per one kidney. The homogenized kidney was applied to a centrifugation at 1,000 x g for 15 minutes and the supernatant was further applied to a centrifugation for 20 minutes at 30,000 x g. The resulting precipitate was twice washed with 50 mM Tris-HCl buffer (pH 7.4) containing 0.1 mM PMSF, 1 mM EDTA. The resultant was stored at -80 °C as a crude receptor membrane fraction and was used as the suspension in the following buffer when necessary.
740 Bq of ^125I-endothelin-1 (81.4 TBq/mmol, Du Pont, USA) as a radio ligand, the crude membrane fraction (2.1 µg protein) and samples were added to the following buffer. The reaction was performed at 37 °C, for 90 minutes in 0.2 ml of the buffer [50 mM Tris-HCl buffer (pH 7.4) containing 0.1 mM PMSF, 1 mM EDTA, 0.2% bovine serum albumin].
The reaction was stopped by fast filtration on a glass filter (GF/B, Wattman, USA) by Cell Harvestor (290 PHD, Cambridge-Technology, Great Britain), and the filter was three times washed with 50 mM Tris-HCl buffer (pH 7.4). Radio activity remained on the filter was assayed by a gamma counter.

[3] = biological target: T2, endothelin receptor B (ETB) (Bos taurus, UniProt P28088); test: Assay of affinity for receptor (2): binding activity on ETB receptor *1, 125I-labeled endothelin-1, bovine brain membrane fraction; settings: specific activity, taking the binding activity of the compound of Example 8 on receptor B as 100, 25°C, 1 hour
T2 construct: A membrane fraction prepared from the bovine brain; from tissue; host or cells: bovine brain membrane fraction
T2 sequence (P28088 27-441): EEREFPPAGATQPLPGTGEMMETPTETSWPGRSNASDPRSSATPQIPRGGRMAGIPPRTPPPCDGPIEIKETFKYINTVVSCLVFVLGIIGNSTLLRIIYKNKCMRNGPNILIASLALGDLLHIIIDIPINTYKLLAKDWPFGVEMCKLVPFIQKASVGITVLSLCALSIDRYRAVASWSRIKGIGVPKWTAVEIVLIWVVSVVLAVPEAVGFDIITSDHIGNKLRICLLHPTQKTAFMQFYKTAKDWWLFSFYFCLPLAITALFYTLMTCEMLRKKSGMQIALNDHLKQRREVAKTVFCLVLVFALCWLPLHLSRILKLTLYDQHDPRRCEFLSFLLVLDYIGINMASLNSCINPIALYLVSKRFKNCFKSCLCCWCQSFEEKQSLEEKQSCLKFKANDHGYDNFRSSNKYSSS
Procedure: Assay of Affinity for Receptor (2) ... Binding Activity on ETB Receptor *1
A membrane fraction prepared from the bovine brain was diluted to 0.15 mg/ml by using a buffer solution for assay, and 100 µl of the resulting suspension of the membrane fraction was poured into each assay tube to use for assay. To this suspension of the membrane fraction was added 2 µl of 5 nM ^125I labeled endothelin-1 solution. Further, 3 µl of a test peptide solution was added thereto, followed by incubation at a temperature of 25°C for 1 hour. Then, the resulting suspension was diluted with 900 µl of the buffer solution for assay cooled with ice, and thereafter separated into a supernatant and a precipitate by centrifugation at 12,000 X g for 10 minutes. Cell membranes and an endothelin receptor B (ETB) embedded therein were contained in the precipitate, and radioactive iodine-labeled endothelin bound to the receptor was also recovered in the precipitate. Accordingly, the amount of radioactive iodine-labeled endothelin bound to the endothelin receptor B (ETB) was determined by measuring the amount of radioactive iodine contained in the precipitate with a gamma-ray counter. The numerical value of ETB shown in Table 1 is the value of specific activity, taking the binding activity of the compound of Example 8 on the receptor B as 100.

Compound	Binding Activity on ET Receptor (R. act.) ETA [1]	Binding Activity on ET Receptor (R. act.) ETB*2 [2]	Binding Activity on ET Receptor (R. act.) ETB*1 [3]	Binding Activity on ET Receptor (R. act.) ETB*1 ([3]; listed as cyclo[-D-Glu-Ala-D-aIle-Leu-D-Trp-])
CC(C)C[C@@H]1NC(=O)[C@@H](C(C)(C)C)NC(=O)[C@H](CC(=O)O)NC(=O)[C@H](C)NC(=O)[C@@H](CC(=O)O)NC(=O)[C@@H](Cc2c[nH]c3ccccc23)NC1=O [Example 39, Cyclo[-D-Asp-Ala-Asp-D-tLeu-Leu-D-Trp-]] (cyclo(AD[dTle]L[dW][dD]))	6.8	53	59	–
CC(C)C[C@@H]1NC(=O)[C@@H](CC(C)C)NC(=O)[C@H](CC(=O)O)NC(=O)[C@H](Cc2c[nH]c3ccccc23)NC(=O)[C@@H](CC(=O)O)NC(=O)[C@@H](Cc2cn(C=O)c3ccccc23)NC1=O [Example 42, Cyclo[-D-Asp-Trp-Asp-D-Leu-Leu-D-Trp(For)-]] (cyclo(D[dL]L[dW](For)[dD]W))	150	150	100	–
CC(C)C[C@@H]1NC(=O)[C@@H](CC(C)C)NC(=O)[C@H](CC(=O)O)NC(=O)[C@H](CC(=O)NCc2ccccc2)NC(=O)[C@@H](CC(=O)O)NC(=O)[C@@H](Cc2c[nH]c3ccccc23)NC1=O [Example 10, cyclo[-D-Asp-Asn(CH2Ph)-Asp-D-Leu-Leu-D-Trp-]] (cyclo(D(NHBn)D[dL]L[dW][dD]))	43	24	26	–
CC(C)C[C@@H]1NC(=O)[C@@H](c2ccsc2)NC(=O)[C@H](CC(=O)O)NC(=O)[C@H](Cc2c[nH]c3ccccc23)NC(=O)[C@@H](CC(=O)O)NC(=O)[C@@H](Cc2c[nH]c3ccccc23)NC1=O [Example 49, Cyclo[-D-Asp-Trp-Asp-D-Thg(3)-Leu-D-Trp-]] (cyclo(D[X1]L[dW][dD]W))	270	75	74	–
CC(C)C[C@@H]1NC(=O)[C@@H](CC(C)C)NC(=O)[C@H](CC(=O)O)NC(=O)[C@@H]2C[C@@H](OCc3ccccc3)CN2C(=O)[C@@H](CC(=O)O)NC(=O)[C@@H](Cc2c[nH]c3ccccc23)NC1=O [Example 13, cyclo[-D-Asp-Hyp(Bzl)-Asp-D-Leu-Leu-D-Trp-]] (cyclo(D[dL]L[dW][dD][Hyp](Bn)))	83	140	85	–
CC(=O)n1cc(C[C@H]2NC(=O)[C@H](CC(C)C)NC(=O)[C@@H](CC(C)C)NC(=O)[C@H](CC(=O)O)NC(=O)[C@H](Cc3c[nH]c4ccccc34)NC(=O)[C@@H](CC(=O)O)NC2=O)c2ccccc21 [Example 43, Cyclo[-D-Asp-Trp-Asp-D-Leu-Leu-D-Trp(Ac)-]] (cyclo(D[dL]L[dW](Ac)[dD]W))	8.2	250	120	–
CC(C)C[C@@H]1NC(=O)[C@@H](CC(C)C)NC(=O)[C@H](CC(=O)O)NC(=O)[C@H](CC(=O)NCCc2ccccc2)NC(=O)[C@@H](CC(=O)O)NC(=O)[C@@H](Cc2c[nH]c3ccccc23)NC1=O [Example 11, cyclo[-D-Asp-Asn(CH2CH2Ph)-Asp-D-Leu-Leu-D-Trp-]] (cyclo(D(NHPhenethyl)D[dL]L[dW][dD]))	93	44	42	–
CC[C@H](C)[C@H]1NC(=O)[C@H](CC(=O)O)NC(=O)[C@H](Cc2c[nH]c3ccccc23)NC(=O)[C@@H](CC(=O)O)NC(=O)[C@@H](Cc2c[nH]c3ccccc23)NC(=O)[C@H](CC(C)C)NC1=O [Example 51, Cyclo[-D-Asp-Trp-Asp-D-aIle-Leu-D-Trp-]] (cyclo(D[d(aIle)]L[dW][dD]W))	100	290	210	–
CC(C)C[C@@H]1NC(=O)[C@@H](c2ccccc2)NC(=O)[C@H](CC(=O)O)NC(=O)[C@H](Cc2c[nH]c3ccccc23)NC(=O)[C@@H](CC(=O)O)NC(=O)[C@@H](Cc2c[nH]c3ccccc23)NC1=O [Example 45, Cyclo[-D-Asp-Trp-Asp-D-Phg-Leu-D-Trp-]] (cyclo(D[dPhg]L[dW][dD]W))	87	180	74	–
CC(C)C[C@@H]1NC(=O)[C@@H](c2cccs2)NC(=O)[C@H](CC(=O)O)NC(=O)[C@H](CCC(=O)NCc2ccccc2)NC(=O)[C@@H](CC(=O)O)NC(=O)[C@@H](Cc2c[nH]c3ccccc23)NC1=O [Example 89, cyclo[-D-Asp-Gln(Bzl)-Asp-D-Thg(2)-Leu-D-Trp-]] (cyclo(D[dGly(2-thienyl)]L[dW][dD]E(NHBn)))	750	71	45	–
CC[C@H](C)[C@H]1NC(=O)[C@H](C)NC(=O)[C@@H](CCC(=O)O)NC(=O)[C@@H](Cc2c[nH]c3ccccc23)NC(=O)[C@H](CC(C)C)NC1=O [Cyclo[-D-Glu-Ala-D-aIle-Leu-D-Trp], cyclo[-D-Glu-Ala-D-aIle-Leu-D-Trp-], reference compound] (cyclo(A[d(aIle)]L[dW][dE]))	1.0	–	<1	less than 1
